In PMC5325423 one finds binding data, which are given here for six substances.

Sequences of proteins named here, by UniProt entry; tags and fusion partners are left off. A change or cut given only in a name is not applied to a line headed by its entry.
UniProt Q04206: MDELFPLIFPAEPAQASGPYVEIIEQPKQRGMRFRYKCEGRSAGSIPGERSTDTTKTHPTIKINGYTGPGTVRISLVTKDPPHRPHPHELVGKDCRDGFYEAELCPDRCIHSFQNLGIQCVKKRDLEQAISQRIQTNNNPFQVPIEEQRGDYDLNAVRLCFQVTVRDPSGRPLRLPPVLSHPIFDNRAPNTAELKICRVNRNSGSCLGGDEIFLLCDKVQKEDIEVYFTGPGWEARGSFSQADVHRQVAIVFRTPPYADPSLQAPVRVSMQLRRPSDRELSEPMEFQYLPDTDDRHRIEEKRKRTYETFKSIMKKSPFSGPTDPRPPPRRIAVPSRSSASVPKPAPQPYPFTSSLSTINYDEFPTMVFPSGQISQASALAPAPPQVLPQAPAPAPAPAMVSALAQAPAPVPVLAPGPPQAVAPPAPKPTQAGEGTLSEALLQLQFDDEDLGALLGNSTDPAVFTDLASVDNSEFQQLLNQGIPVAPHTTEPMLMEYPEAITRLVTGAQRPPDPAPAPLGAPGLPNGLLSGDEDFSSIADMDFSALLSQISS
UniProt P35222: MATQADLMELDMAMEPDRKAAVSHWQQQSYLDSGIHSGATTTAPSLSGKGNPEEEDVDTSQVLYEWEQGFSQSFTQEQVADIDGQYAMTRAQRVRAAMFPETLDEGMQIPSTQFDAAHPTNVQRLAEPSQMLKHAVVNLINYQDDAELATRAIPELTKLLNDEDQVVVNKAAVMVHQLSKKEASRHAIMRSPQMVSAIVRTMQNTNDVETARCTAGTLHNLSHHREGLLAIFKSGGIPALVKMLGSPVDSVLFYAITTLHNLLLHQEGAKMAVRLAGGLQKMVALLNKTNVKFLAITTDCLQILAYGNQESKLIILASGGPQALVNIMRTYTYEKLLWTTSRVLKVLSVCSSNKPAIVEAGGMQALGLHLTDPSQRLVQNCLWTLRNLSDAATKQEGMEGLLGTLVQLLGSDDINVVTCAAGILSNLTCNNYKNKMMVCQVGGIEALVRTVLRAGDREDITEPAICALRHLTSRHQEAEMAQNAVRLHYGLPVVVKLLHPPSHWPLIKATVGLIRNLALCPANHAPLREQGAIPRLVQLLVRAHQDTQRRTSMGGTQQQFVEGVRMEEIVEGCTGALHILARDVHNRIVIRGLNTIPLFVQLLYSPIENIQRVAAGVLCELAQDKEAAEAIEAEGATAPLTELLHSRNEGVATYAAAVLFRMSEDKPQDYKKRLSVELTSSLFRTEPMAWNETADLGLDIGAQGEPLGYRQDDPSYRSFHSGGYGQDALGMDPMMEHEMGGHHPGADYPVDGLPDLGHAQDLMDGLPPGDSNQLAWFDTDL
UniProt Q02248: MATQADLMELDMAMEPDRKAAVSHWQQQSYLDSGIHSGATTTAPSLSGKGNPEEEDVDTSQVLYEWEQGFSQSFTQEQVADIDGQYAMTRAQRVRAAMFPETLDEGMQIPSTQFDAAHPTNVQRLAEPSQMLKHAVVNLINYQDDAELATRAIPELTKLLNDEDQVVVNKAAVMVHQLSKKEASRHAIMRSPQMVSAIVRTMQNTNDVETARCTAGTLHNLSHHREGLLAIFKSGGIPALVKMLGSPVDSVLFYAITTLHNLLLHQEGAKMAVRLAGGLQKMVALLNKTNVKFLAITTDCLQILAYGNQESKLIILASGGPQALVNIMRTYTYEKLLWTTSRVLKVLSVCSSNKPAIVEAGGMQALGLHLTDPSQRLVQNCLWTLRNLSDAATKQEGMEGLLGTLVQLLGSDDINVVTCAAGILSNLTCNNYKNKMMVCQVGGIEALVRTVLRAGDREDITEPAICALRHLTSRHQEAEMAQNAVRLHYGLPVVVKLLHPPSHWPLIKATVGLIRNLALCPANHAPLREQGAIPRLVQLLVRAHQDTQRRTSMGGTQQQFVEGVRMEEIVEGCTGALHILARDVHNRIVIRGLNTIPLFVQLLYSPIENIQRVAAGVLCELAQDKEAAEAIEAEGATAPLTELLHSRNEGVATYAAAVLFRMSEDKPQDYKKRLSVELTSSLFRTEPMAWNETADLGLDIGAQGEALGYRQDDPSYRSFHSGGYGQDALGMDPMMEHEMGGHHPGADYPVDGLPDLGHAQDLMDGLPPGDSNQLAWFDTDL
UniProt P13569: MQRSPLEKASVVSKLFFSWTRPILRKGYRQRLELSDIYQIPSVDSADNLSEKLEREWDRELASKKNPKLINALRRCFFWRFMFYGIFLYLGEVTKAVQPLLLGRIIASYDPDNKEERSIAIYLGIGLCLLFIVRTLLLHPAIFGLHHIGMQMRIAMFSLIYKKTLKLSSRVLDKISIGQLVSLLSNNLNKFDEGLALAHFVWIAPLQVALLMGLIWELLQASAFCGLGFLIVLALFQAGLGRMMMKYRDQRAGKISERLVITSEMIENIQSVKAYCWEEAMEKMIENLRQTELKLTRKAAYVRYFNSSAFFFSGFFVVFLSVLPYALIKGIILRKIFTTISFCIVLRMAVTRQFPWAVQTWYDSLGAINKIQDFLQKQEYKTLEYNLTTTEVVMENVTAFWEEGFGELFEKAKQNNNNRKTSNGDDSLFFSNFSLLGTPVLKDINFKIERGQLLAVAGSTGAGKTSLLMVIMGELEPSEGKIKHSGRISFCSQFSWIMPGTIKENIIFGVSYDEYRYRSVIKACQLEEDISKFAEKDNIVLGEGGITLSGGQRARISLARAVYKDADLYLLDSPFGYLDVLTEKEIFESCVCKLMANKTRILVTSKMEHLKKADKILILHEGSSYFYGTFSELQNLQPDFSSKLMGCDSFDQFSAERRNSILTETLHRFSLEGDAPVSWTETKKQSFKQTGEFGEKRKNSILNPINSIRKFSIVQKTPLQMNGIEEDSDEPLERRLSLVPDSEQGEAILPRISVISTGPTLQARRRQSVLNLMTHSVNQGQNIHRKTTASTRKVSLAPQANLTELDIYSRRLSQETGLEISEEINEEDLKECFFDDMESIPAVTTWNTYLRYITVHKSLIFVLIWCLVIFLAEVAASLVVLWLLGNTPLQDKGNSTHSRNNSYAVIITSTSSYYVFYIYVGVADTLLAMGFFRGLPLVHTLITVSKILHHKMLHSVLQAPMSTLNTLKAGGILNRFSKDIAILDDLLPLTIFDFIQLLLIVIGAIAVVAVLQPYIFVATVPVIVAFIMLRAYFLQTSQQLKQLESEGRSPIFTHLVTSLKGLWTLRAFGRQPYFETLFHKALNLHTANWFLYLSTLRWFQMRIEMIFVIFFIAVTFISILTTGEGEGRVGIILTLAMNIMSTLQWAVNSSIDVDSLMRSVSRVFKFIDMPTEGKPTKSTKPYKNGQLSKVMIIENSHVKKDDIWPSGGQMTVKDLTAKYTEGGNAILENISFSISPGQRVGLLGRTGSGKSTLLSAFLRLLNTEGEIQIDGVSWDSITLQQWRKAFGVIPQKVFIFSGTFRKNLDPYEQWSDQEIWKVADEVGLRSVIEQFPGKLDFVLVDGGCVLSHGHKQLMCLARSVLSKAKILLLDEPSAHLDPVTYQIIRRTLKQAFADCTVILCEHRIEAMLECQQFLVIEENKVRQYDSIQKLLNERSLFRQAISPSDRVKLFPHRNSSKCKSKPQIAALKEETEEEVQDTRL
UniProt Q04207: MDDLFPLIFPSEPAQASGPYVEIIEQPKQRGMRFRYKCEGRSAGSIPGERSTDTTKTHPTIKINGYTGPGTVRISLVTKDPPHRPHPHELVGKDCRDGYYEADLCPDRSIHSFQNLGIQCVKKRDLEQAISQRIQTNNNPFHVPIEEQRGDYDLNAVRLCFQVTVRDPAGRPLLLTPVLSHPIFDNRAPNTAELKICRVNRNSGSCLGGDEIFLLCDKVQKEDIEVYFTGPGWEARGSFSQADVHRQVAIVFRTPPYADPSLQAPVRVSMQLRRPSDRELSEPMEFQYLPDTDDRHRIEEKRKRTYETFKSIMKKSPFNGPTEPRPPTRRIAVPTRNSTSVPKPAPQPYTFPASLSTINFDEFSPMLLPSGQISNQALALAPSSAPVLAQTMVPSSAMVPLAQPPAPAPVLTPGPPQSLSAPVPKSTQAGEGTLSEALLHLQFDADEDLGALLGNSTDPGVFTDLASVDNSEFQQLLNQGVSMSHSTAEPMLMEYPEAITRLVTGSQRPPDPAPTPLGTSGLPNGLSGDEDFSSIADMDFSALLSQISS
UniProt P26361: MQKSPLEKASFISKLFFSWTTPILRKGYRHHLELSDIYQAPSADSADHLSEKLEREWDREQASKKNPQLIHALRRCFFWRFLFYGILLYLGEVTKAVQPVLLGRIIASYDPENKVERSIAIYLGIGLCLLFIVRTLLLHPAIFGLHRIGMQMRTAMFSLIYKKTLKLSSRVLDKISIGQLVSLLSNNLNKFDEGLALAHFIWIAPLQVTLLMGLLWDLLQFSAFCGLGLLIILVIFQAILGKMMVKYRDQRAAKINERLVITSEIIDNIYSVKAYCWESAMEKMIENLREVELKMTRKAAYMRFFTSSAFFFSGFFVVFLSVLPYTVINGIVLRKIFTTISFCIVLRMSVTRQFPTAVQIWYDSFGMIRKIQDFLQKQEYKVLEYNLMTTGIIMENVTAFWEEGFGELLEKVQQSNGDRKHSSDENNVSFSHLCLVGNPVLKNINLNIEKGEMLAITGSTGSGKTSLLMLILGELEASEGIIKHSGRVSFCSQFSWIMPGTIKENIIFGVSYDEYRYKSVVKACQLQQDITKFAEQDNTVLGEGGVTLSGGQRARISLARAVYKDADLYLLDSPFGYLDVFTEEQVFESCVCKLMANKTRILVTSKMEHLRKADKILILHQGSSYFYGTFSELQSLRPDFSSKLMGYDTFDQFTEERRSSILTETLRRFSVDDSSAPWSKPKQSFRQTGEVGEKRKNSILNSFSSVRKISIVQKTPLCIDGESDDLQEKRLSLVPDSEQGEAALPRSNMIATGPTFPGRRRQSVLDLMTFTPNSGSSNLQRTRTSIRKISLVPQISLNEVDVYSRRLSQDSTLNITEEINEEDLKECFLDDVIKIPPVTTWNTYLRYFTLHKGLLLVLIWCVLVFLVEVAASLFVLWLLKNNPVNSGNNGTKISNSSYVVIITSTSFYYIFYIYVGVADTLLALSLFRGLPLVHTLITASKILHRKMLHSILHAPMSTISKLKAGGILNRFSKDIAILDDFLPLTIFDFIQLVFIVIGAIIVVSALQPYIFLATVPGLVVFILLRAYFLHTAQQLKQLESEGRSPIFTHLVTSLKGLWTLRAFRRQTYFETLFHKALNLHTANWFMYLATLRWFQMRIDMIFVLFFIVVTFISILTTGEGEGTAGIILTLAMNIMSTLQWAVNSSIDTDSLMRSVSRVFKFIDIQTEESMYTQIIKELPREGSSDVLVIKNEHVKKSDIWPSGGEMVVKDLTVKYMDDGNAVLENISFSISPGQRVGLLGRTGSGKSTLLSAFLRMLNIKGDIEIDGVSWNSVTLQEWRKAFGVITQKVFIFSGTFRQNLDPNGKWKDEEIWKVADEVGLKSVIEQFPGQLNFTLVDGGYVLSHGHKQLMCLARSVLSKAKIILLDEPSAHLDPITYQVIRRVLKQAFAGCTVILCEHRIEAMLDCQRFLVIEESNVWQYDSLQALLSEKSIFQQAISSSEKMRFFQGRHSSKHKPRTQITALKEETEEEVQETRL

No constants are given. Whether binding was seen depends on the method and setting. Binding seen in cells or lysates may run through a third protein. Some entries that bind do so weakly or less than the wild type.

Test [1] has as its target NF-κB p65, human (human (endogenous in Caco-2)) (UniProt Q04206). The test can be described thus: co-IP; Caco-2 cell lysates (50 mM HEPES pH 8.3, 420 mM KCl, 0.1% NP-40, 1 mM EDTA) immunoprecipitated with anti-CFTR, anti-β-catenin or anti-NF-κB p65 antibody and protein A/G beads, 4°C overnight; Western blot; IgG control.
Test [2] concerns the target β-catenin, human (human (endogenous in Caco-2)) (UniProt P35222). The test is described as above.
Test [3] concerns the target β-catenin, mouse (mouse (endogenous in intestine)) (UniProt Q02248). The test can be described thus: co-IP; WT and ΔF508 mouse intestine immunoprecipitated with anti-β-catenin antibody; Western blot for CFTR and p65.
Test [4] has as its target cystic fibrosis transmembrane conductance regulator (CFTR), human (human (endogenous in Caco-2)) (UniProt P13569). The test can be described thus: co-IP; Caco-2 cell lysates (50 mM HEPES pH 8.3, 420 mM KCl, 0.1% NP-40, 1 mM EDTA) immunoprecipitated with anti-CFTR, anti-β-catenin or anti-NF-κB p65 antibody and protein A/G beads, 4°C overnight; Western blot; IgG control. A general note: Immunoblotting shows a protein as a band on a membrane.

Take “cystic fibrosis transmembrane conductance regulator (CFTR), human (from UniProt P13569 1-1480)”: the binding result in test [1] and in test [2] was “binds” each time.

As to “NF-κB p65, mouse (from UniProt Q04207 1-549)”, the binding result in test [3] is reported as “binds”.

Consider “CFTR, mouse, wild type (from UniProt P26361 1-1476)”, for which the binding entry in test [3] is “binds”.

On to “NF-κB p65, human (from UniProt Q04206 1-551)”, for which, in test [4], the binding entry is on record as “binds”.

For “ΔF508 CFTR protein, mouse (from UniProt P26361 1-1476)”, in test [3], the binding entry was “no binding”.

As to “β-catenin, human (from UniProt P35222 1-781)”, the binding entry in test [4] is listed as “binds”.
